# Source: PubChem BioAssay AID588855 (National Center for Advancing Translational Sciences (NCATS), 2011)
# The whole screen tested about 410,000 compounds, of which about 5,000 (1.2%) were called active. This list was built around the results that the source calls inconclusive (neither active nor inactive); the mix of calls is not that of the screen. Calls follow the shape of the dose curve; as a rule, active = well fitted inhibition curve with a large enough effect; inconclusive = small, poorly fitted or top-dose-only effect; inactive = no such curve, though single readings can be large or run the other way. Potencies beside an inconclusive call are fits to weak or partial responses and may not hold up.
# Assay: qHTS for Inhibitors of TGF-b; also: nearly all actives have a fitted effect of over 65% in size
# Settings: HepG2 CAGA-GFP TGF-b/SMAD3 reporter, GFP fluorescence, 18 h, TGF-beta stimulated, 500 pg/mL final; series mostly up to 46.1 µM; activity, negative = inhibition: at the top concentration
# How it was run: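 HEPG2 CAGA-GFP cells (1000/well, DMEM with 1% FBS) were pre-incubated 2 h at 37 degrees C, given compound by pin tool, then stimulated with TGF-beta at 500 pg/mL final for 18 h before per-cell GFP fluorescence imaging.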
# % is scaled to controls: 0 for no effect and ±100 for the full control effect; potency is read from the fitted curve at half-maximal effect; tags tell the direction and shape of the fitted curve.
SMILES,"activity, negative = inhibition",Potency
CCOc1ccc(C(=O)Nc2cccc(NC(=O)c3ccc(C(C)(C)C)cc3)c2)cc1Br,inactive: -4.94%,
CCc1cccc(NC(=O)Cn2c(=O)oc3cc(S(=O)(=O)N4CCOCC4)ccc32)c1,inactive: -21.5%,
C[C@@H]1CN([C@H](C)CO)C(=O)c2cc(NC(=O)Nc3ccc(F)cc3)ccc2O[C@@H](C)CCCCO[C@H]1CN(C)S(=O)(=O)c1cccs1,inactive: -14.3%,
CC(C)(C)OC(=O)[C@H]1[C@H](c2ccc([N+](=O)[O-])cc2)C2(C(=O)c3ccccc3C2=O)C2c3ccccc3C=NN21 (stereo not given in full),,"inconclusive: 20 µM [inhibitor, single point]"
O=C(Nc1ccc(N2CCN(C(=O)c3ccc(Cl)cc3)CC2)cc1)c1ccc2c(c1)OCCO2,,"inconclusive: 6.31 µM [inhibitor, partial curve, poor fit]"
CC(=O)c1cccc(NC(=O)C2CCCN(C(=O)c3cnn(-c4ccccc4)c3-n3cccc3)C2)c1 (stereo not given),inactive: -25.3%,
Cc1ccc(CNC(=O)CN(c2cccc(C)c2C)S(=O)(=O)c2ccccc2)cc1,,"inconclusive: 35.5 µM [inhibitor, single point]"
O=C(CCn1c2c(c3ccccc31)CCCC2)NNC(=O)c1ccc([N+](=O)[O-])cc1,,"inconclusive: 22.4 µM [inhibitor, single point]"
O=C(Nc1ccccc1N1CCCCC1)c1ccc(-c2cc(Cl)ccc2Cl)o1,inactive: 2.75%,
O=S(=O)(c1ccc2c(c1)OCCO2)N1CCN(c2cccc(Cl)c2)CC1,,"inconclusive: 6.31 µM [inhibitor, single point]"
C[C@H](O)C#Cc1ccc2c(c1)O[C@@H](CN(C)Cc1ccc(-c3ccccc3)cc1)[C@H](C)CN([C@@H](C)CO)S2(=O)=O,,"inconclusive: 28.2 µM [inhibitor, single point]"
C=CCNC(=O)/C(=C/c1ccccc1OCC)NC(=O)c1ccccc1,inactive: -1.05%,
Cc1cc2ccccc2c(=O)n1CC(=O)NCC(=O)N1CCN(c2cccc(Cl)c2)CC1,,"inconclusive: 17.8 µM [inhibitor, single point]"
Cc1nn(-c2ccccc2)c2nc(-c3ccncc3)cc(C(=O)NCc3ccco3)c12,,"inconclusive: 22.4 µM [inhibitor, single point]"
Cc1sc(NC(=O)c2ccco2)nc1-c1ccc2c(c1)CC(C)N2C(=O)C1CC1 (stereo not given),,"inconclusive: 14.1 µM [inhibitor, partial curve, poor fit]"
CCOc1ccc(NC(=O)c2ccccn2)cc1,,"inconclusive: 28.2 µM [inhibitor, single point]"
CCOC(=O)c1c(C)[nH]c(C)c1S(=O)(=O)NCCc1cccs1,inactive: 6.8%,
COc1cccc(-c2nnc(SC(C(=O)c3c[nH]c4ccccc34)c3ccccc3)n2C)c1 (stereo not given),,"inconclusive: 25.1 µM [inhibitor, single point]"
Cc1ccc(NC(=O)CN2C(=O)COc3ccc(S(=O)(=O)NC4CCCC4)cc32)cc1Cl,,"inconclusive: 35.5 µM [inhibitor, single point]"
COc1ccc(CN2CC[C@H]3C=CC[C@@H](C(=O)Nc4nccs4)[C@H]3C2=O)cc1OC,inactive: 21.2%,
Cc1cccc(N2C(=O)N3[C@@H]4c5ccccc5OC[C@@H]4[C@@H](c4ccccc4)[C@@]3(C)C2=O)c1,,"inconclusive: 31.6 µM [inhibitor, single point]"
CCOC(=O)CSc1nnc(NC(=O)C2CC(=O)N(c3ccc(F)cc3)C2)s1 (stereo not given),,"inconclusive: 17.8 µM [inhibitor, partial curve]"

SMILES,"activity, negative = inhibition",Potency
O=C(Cn1ncc(Cl)c(Cl)c1=O)N1CCN(S(=O)(=O)c2ccc3ccccc3c2)CC1,,active: 3.98 µM
Cc1ccc(CCN2C(Nc3ccccc3)=NC[C@@H]2C)cc1,,"inconclusive: 5.62 µM [inhibitor, single point]"
O=C(NC1CCCCCCC1)c1c(O)c2ccccc2[nH]c1=O,inactive: -1.08%,
COC(=O)N/N=C/c1cc(Cl)c(OCc2ccc(F)cc2)c(OC)c1,inactive: 5.53%,
O=C(NC1CCN(Cc2ccccc2)CC1)c1ccccc1OCc1ccccc1,inactive: -31.1%,
C=CCc1ccccc1OCc1nc2ccccc2n1CC,,"inconclusive: 15.8 µM [inhibitor, single point]"
CCC(C)[C@H](NC(=O)[C@@H]1Cc2c([nH]c3ccccc23)C2c3ccccc3C(=O)N21)C(=O)NCC1CCCO1 (stereo not given in full),,"inconclusive: 14.1 µM [inhibitor, partial curve, poor fit]"
C#CCOCCOCCOCCNc1nc(N2CCN(C(=O)C([C@@H](C)O)n3cc([C@@H](N)CCCCN)nn3)CC2)nc(N2CCN(C(=O)C([C@@H](C)O)n3cc([C@@H](N)CCCCN)nn3)CC2)n1 (stereo not given in full),inactive: 1.81%,
Cc1ccc(S(=O)(=O)c2nc(S(=O)(=O)c3ccccc3)sc2N2CCN(C)CC2)cc1,inactive: -9.53%,
O=C(c1cccnc1)N1CCN(Cc2cccc(Br)c2)CC1,inactive: -18.9%,
COc1ccc(S(=O)(=O)c2c(O)c3ccc(C(=O)NCc4ccc(Cl)cc4)cc3[nH]c2=O)cc1,,"inconclusive: 3.98 µM [inhibitor, partial curve, poor fit]"
CCOC(=O)C1CCN(C(=O)Cn2ncc3c4ccccc4n(Cc4ccc(F)cc4)c3c2=O)CC1,,"inconclusive: 10 µM [inhibitor, partial curve, poor fit]"
Cc1ncc(C[n+]2csc(CCOC(=O)CC34CC5CC(CC(C5)C3)C4)c2C)c(N)n1,,"inconclusive: 6.31 µM [inhibitor, single point]"
CN1C(=O)CS/C1=N\NC(=O)COc1cccc2cccnc12,inactive: -28%,
O=C(/C=C/c1ccc(S(=O)(=O)N2CCOCC2)cc1)NC(=S)NCCCn1ccnc1,,"inconclusive: 3.16 µM [inhibitor, partial curve]"
CCOC(=O)c1cc2c(=O)c3cc(C)ccc3oc2nc1C,inactive: 0.306%,
CCn1c(-c2ccc(N(C)C)cc2)nc2ccccc21,,"inconclusive: 17.8 µM [inhibitor, partial curve, poor fit]"
CNC(=O)c1[nH]cnc1C(=O)Nc1ccccc1OC,,"inconclusive: 35.5 µM [inhibitor, single point]"
Cc1ccc(NC(=O)CCc2c(C)nn(-c3ccc(N4CCCCC4)nn3)c2C)cc1C,,"inconclusive: 35.5 µM [inhibitor, single point]"
Cc1sc2ncnc(SCC(=O)NC(C)C(C)C)c2c1C (stereo not given),inactive: 4.35%,
CC(=O)Nc1ccc(SCCN2CC[C@@H](C)CCC2=O)cc1,inactive: -2.85%,
CCc1nc2ccccc2c(=O)n1/N=C/c1ccc(OC)cc1,,"inconclusive: 6.31 µM [inhibitor, single point]"

SMILES,"activity, negative = inhibition",Potency
CCc1cc(Cn2nc(-c3ccccc3)cc2C(=O)O)on1,,"inconclusive: 0.398 µM [inhibitor, partial curve, poor fit]"
CC(C)CCN1C(=O)c2ccc(C(=O)NCC3CCCO3)cc2C1=O (stereo not given),,"inconclusive: 0.631 µM [inhibitor, full curve, poor fit]"
O=C(Nc1ccc(Cl)cc1)N1CCCN(c2ccc(C(F)(F)F)cc2[N+](=O)[O-])CC1,,"inconclusive: 35.5 µM [inhibitor, single point]"
Cc1ccccc1/C(N)=N/OC(=O)N1c2ccccc2Sc2ccccc21,inactive: 0.306%,
O=C(Nc1cccc(C(F)(F)F)c1)C1Cc2c(-c3cccc(F)c3)ccnc2O1 (stereo not given),,"inconclusive: 35.5 µM [inhibitor, single point]"
O=C(CN1CCN(S(=O)(=O)c2ccc(F)c(Cl)c2)CC1)N1CCc2ccccc2C1,,"inconclusive: 15.8 µM [inhibitor, single point]"
O=C(c1ccc(Br)cc1)C(CN1CCOCC1)c1ccccc1 (stereo not given),,active: 11.2 µM
O=C(Nc1cccn(Cc2c(Cl)cccc2Cl)c1=O)c1c(Cl)cccc1Cl,,"inconclusive: 2.82 µM [inhibitor, single point]"
COc1cc(C(c2nnnn2C2CCCC2)N2CCN(C)CC2)cc(OC)c1OC (stereo not given),,"inconclusive: 0.631 µM [inhibitor, full curve]"
CCOc1ccc(N(C)S(=O)(=O)c2cc(-c3cc(C)no3)ccc2C(C)C)cc1,,"inconclusive: 10 µM [inhibitor, partial curve, poor fit]"
CCOc1ccccc1NC(=O)/C=C/C(N)=O,,"inconclusive: 22.4 µM [inhibitor, single point]"
O=C(COc1ccc(Cl)cc1Cl)OCn1nnc2ccccc2c1=O,,"inconclusive: 20 µM [inhibitor, partial curve]"
O=C(O)CCSc1nc2ccccc2n1Cc1ccccc1,,"inconclusive: 3.55 µM [inhibitor, partial curve, poor fit]"
CC(C)(C)NC(=O)CSc1ccc(S(=O)(=O)N2CCOCC2)cn1,,"inconclusive: 25.1 µM [inhibitor, single point]"
O=C(O)C1C2C=CC(C2)C1C(=O)NCc1ccc(Cl)cc1Cl (stereo not given),inactive: -11.7%,
CC1CCN(c2nc3ccc(C(=O)NCc4ccccc4Cl)cc3s2)CC1,,"inconclusive: 5.62 µM [inhibitor, single point]"
COc1ccccc1C(=O)Nc1ccc2c(c1)n(C)c(=O)n2C,inactive: 8.72%,
O=C(c1cccc(S(=O)(=O)N2CCOCC2)c1)N(Cc1ccc(F)cc1)Cc1ccco1,,"inconclusive: 3.55 µM [inhibitor, partial curve, poor fit]"
Cc1oc2ccc(O)c(CN3CCOCC3)c2c1C(=O)c1ccc(Cl)cc1,,"inconclusive: 15.8 µM [inhibitor, single point]"
O=C(Cn1cnc2ccccc2c1=O)NCCC(=O)Nc1ccccc1C(F)(F)F,inactive: 1.99%,
COc1cc(OC)c2ccc(=O)oc2c1C(CCN1CCCCC1)c1ccc(N(C)C)cc1 (stereo not given),,"inconclusive: 3.16 µM [inhibitor, single point]"
